{"source": "PubChem BioAssay AID588855", "about": "(National Center for Advancing Translational Sciences (NCATS), 2011)", "note": "Hit rate of the full screen: of about 410,000 compounds, about 5,000 (1.2%) were called active. The shares of active, inactive and inconclusive entries below differ from those in the screen. Calls follow the shape of the dose curve; as a rule, active = well fitted inhibition curve with a large enough effect; inconclusive = small, poorly fitted or top-dose-only effect; inactive = no such curve, though single readings can be large or run the other way. Potencies of inconclusive entries are doubtful fits and often do not repeat. Potency is read from the fitted curve at half-maximal effect; tags tell the direction and shape of the fitted curve.", "data": [{"assay": "qHTS for Inhibitors of TGF-b; also: nearly all actives have a fitted effect of over 65% in size", "settings": "HepG2 CAGA-GFP TGF-b/SMAD3 reporter, GFP fluorescence, 18 h, TGF-beta stimulated, 500 pg/mL final; series mostly up to 46.1 µM", "procedure,_shortened": "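HEPG2 CAGA-GFP reporter cells (1000/well, DMEM with 1% FBS) received compounds, then recombinant TGF-beta at 500 pg/mL final for 18 hours at 37 degrees C. Per-cell GFP summed per well was normalised to unstimulated and stimulated DMSO controls before curve fitting.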", "values": [{"smiles": "COc1ccc(N2CCN(S(=O)(=O)c3cc4c5c(c3)C(C)C(=O)N5CCC4)CC2)cc1", "note": "(configuration not stated)", "Potency": "inconclusive: 2.82 µM [inhibitor, partial curve, poor fit]"}, {"smiles": "CCOc1ccccc1/C=C/c1onc(C)c1S(=O)(=O)N1CCC(C(=O)N(CC)CC)CC1", "Potency": "inconclusive: 8.91 µM [inhibitor, partial curve, poor fit]"}, {"smiles": "CC(C)c1ccc(NC(=O)c2cc(S(=O)(=O)NCC3COc4ccccc4O3)ccc2F)cc1", "note": "(configuration not stated)", "Potency": "inconclusive: 35.5 µM [inhibitor, single point]"}, {"smiles": "COC(=O)[C@@H]1C[C@@]2(O)[C@@H](O)[C@@H](O)[C@@H](O)C[C@H]2N1Cc1ccc(C(F)(F)F)cc1", "Potency": "inconclusive: 35.5 µM [inhibitor, single point]"}, {"smiles": "CCCOc1ccc(-c2nn(-c3ccccc3)cc2C2NC(=O)NC(C)=C2C(=O)OC(C)C)cc1", "note": "(configuration not stated)", "Potency": "inconclusive: 35.5 µM [inhibitor, single point]"}, {"smiles": "Nc1nnc(-c2cn(-c3ccccc3)nc2-c2ccc(Cl)cc2)o1", "Potency": "inconclusive: 35.5 µM [inhibitor, single point]"}, {"smiles": "O=S(=O)(NC1c2cccc3cccc(c23)C1N1CCN(CCO)CC1)c1ccccc1", "note": "(configuration not stated)", "Potency": "inconclusive: 35.5 µM [inhibitor, single point]"}, {"smiles": "Cc1ccc(NC(=O)Cn2c(=O)n(CCCCCC(=O)NCc3ccc(F)cc3)c(=O)c3sccc32)cc1C", "Potency": "inconclusive: 12.6 µM [inhibitor, partial curve]"}, {"smiles": "CC(=O)Nc1ccccc1NC(=O)c1cccc2ccccc12", "Potency": "inconclusive: 3.16 µM [inhibitor, single point]"}, {"smiles": "CC(C)[C@H](NC(=O)c1ccccc1)C(=O)NCCc1ccccc1", "Potency": "inactive"}, {"smiles": "O=C(Cc1ccccc1)Nc1nc2ccccc2[nH]1", "Potency": "inactive"}, {"smiles": "COc1cccc(CN(C)C(=O)CC[C@H]2O[C@@H](n3ccc(=O)[nH]c3=O)[C@H](O)[C@@H]2O)c1", "Potency": "inactive"}, {"smiles": "CCCCCC(=O)Nc1ccc(C(=O)COC(=O)CN2C(=O)NC3(CCCC3)C2=O)cc1", "Potency": "inactive"}, {"smiles": "CN1CCN(c2ccccc2NC(=O)c2cccc(OCc3ccccc3)c2)CC1", "Potency": "inactive"}, {"smiles": "COc1ccc(CNS(=O)(=O)c2ccc3c(c2)CCN3C(=O)C2CC2)cc1", "Potency": "inconclusive: 2.82 µM [inhibitor, full curve]"}, {"smiles": "COc1ccc(-c2cnnn2-c2ccc(NC(=O)c3c(F)cccc3F)cc2)cc1", "Potency": "inconclusive: 8.91 µM [inhibitor, partial curve, poor fit]"}, {"smiles": "Clc1cccc(-c2nc(NCCCN3CCOCC3)c3ccccc3n2)c1", "Potency": "inconclusive: 35.5 µM [inhibitor, single point]"}]}]}
